Experimental findings from PMC12820563, “FoxP3 forms a head-to-head dimer in vivo and stabilizes its multimerization on adjacent microsatellites” are described below.

The other results are listed elsewhere or left out.

In this assay the target is T1, MBP-FoxP1dN (Mus musculus, UniProt P58462 326-579).
T1 sequence: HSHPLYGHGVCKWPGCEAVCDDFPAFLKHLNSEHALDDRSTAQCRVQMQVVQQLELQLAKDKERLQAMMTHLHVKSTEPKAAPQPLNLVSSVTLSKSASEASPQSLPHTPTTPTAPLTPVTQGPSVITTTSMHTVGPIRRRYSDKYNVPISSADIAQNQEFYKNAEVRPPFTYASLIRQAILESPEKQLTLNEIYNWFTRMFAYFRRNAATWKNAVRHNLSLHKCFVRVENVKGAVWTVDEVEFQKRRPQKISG
Put plainly: PD-seq (MBP pull-down with sequencing); 20 mM Tris-HCl pH 7.5, 100 mM NaCl, 1.5 mM MgCl2, 0.4 uM protein, 0.1 uM dsDNA library, 30 min, room temperature, amylose pull-down; high values mean tight binding. Particulars: protein: recombinant; tags: His6-MBP; chain copies: 2; dsDNA, one strand shown. In short, it runs like this:
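In Tris pH 7.5 buffer with NaCl and MgCl2, 0.4 µM His6-MBP-tagged mouse FoxP3 or FoxP1 fragment lacking the N-terminus, from E. coli, met 0.1 µM Klenow-filled double-stranded degenerate DNA library for 30 min at room temperature. Three washes on amylose resin followed capture of the complexes, then proteinase K release of DNA, PCR barcoding and Illumina sequencing. Binding is taken as pooled-replicate reads-per-million enrichment of pull-down relative to input.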
“GATGATTGTTCTCCCAGCTGATGAATTTTCCGACTCGAGTAAACAAATTTTCCTAATCTTTCTGTTCAAGCGCCATCTAC”: the binding signal was 0.847 RPM ratio (pull-down/input).
For “GATGATTGTTCTCCCAGCTGATGAATTAGATGATTCGAGTAAACAAATTTTCCTAATCTTTCTGTTCAAGCGCCATCTAC” the value was 1.04 RPM ratio (pull-down/input); for “GATGATTGTTCTCCCAGCTGATGAATTCGATTCATCGAGTAAACAAATTTTCCTAATCTTTCTGTTCAAGCGCCATCTAC”, 0.896 RPM ratio (pull-down/input).
Next, “GATGATTGTTCTCCCAGCTGATGAATTACATGACTCGAGTAAACAAATTTTCCTAATCTTTCTGTTCAAGCGCCATCTAC”: 1.13 RPM ratio (pull-down/input); “GATGATTGTTCTCCCAGCTGATGAATTGAGCTCTTCGAGTAAACAAATTTTCCTAATCTTTCTGTTCAAGCGCCATCTAC”: 0.833 RPM ratio (pull-down/input); “GATGATTGTTCTCCCAGCTGATGAATTACGAAGTTCGAGTAAACAAATTTTCCTAATCTTTCTGTTCAAGCGCCATCTAC”: 1.04 RPM ratio (pull-down/input).
In the case of “GATGATTGTTCTCCCAGCTGATGAATTGGAGTCTTCGAGTAAACAAATTTTCCTAATCTTTCTGTTCAAGCGCCATCTAC”, the binding signal is 0.806 RPM ratio (pull-down/input).
For “GATGATTGTTCTCCCAGCTGATGAATTCATAATCTCGAGTAAACAAATTTTCCTAATCTTTCTGTTCAAGCGCCATCTAC” the value was 0.871 RPM ratio (pull-down/input); for “GATGATTGTTCTCCCAGCTGATGAATTCGGGACATCGAGTAAACAAATTTTCCTAATCTTTCTGTTCAAGCGCCATCTAC”, 0.873 RPM ratio (pull-down/input).
Turning to “GATGATTGTTCTCCCAGCTGATGAATTCGTTATCTCGAGTAAACAAATTTTCCTAATCTTTCTGTTCAAGCGCCATCTAC”, the binding signal is 0.923 RPM ratio (pull-down/input).
Regarding “GATGATTGTTCTCCCAGCTGATGAATTATGAATCTCGAGTAAACAAATTTTCCTAATCTTTCTGTTCAAGCGCCATCTAC”, the binding signal was 0.948 RPM ratio (pull-down/input).
For “GATGATTGTTCTCCCAGCTGATGAATTGTCATGTTCGAGTAAACAAATTTTCCTAATCTTTCTGTTCAAGCGCCATCTAC”, the binding signal is 1.12 RPM ratio (pull-down/input).
As for “GATGATTGTTCTCCCAGCTGATGAATTGATAGTTTCGAGTAAACAAATTTTCCTAATCTTTCTGTTCAAGCGCCATCTAC”, the binding signal was 0.968 RPM ratio (pull-down/input).
Turning to “GATGATTGTTCTCCCAGCTGATGAATTATATGATTCGAGTAAACAAATTTTCCTAATCTTTCTGTTCAAGCGCCATCTAC”, the binding signal is 1.13 RPM ratio (pull-down/input).
Next, “GATGATTGTTCTCCCAGCTGATGAATTAGTCATGTCGAGTAAACAAATTTTCCTAATCTTTCTGTTCAAGCGCCATCTAC”: 0.952 RPM ratio (pull-down/input); “GATGATTGTTCTCCCAGCTGATGAATTGAGGCGGTCGAGTAAACAAATTTTCCTAATCTTTCTGTTCAAGCGCCATCTAC”: 0.939 RPM ratio (pull-down/input).
Next, “GATGATTGTTCTCCCAGCTGATGAATTAAGCGGGTCGAGTAAACAAATTTTCCTAATCTTTCTGTTCAAGCGCCATCTAC”: 1.03 RPM ratio (pull-down/input).
On to “GATGATTGTTCTCCCAGCTGATGAATTGGACCAGTCGAGTAAACAAATTTTCCTAATCTTTCTGTTCAAGCGCCATCTAC”, for which the binding signal was 0.766 RPM ratio (pull-down/input).
On to “GATGATTGTTCTCCCAGCTGATGAATTTTCGCGCTCGAGTAAACAAATTTTCCTAATCTTTCTGTTCAAGCGCCATCTAC”, for which the binding signal was 0.844 RPM ratio (pull-down/input).
For “GATGATTGTTCTCCCAGCTGATGAATTCCCACCTTCGAGTAAACAAATTTTCCTAATCTTTCTGTTCAAGCGCCATCTAC” the value was 0.828 RPM ratio (pull-down/input); for “GATGATTGTTCTCCCAGCTGATGAATTGTACCGTTCGAGTAAACAAATTTTCCTAATCTTTCTGTTCAAGCGCCATCTAC”, 1.02 RPM ratio (pull-down/input).
Next, “GATGATTGTTCTCCCAGCTGATGAATTCAGGCCATCGAGTAAACAAATTTTCCTAATCTTTCTGTTCAAGCGCCATCTAC”: 0.92 RPM ratio (pull-down/input); “GATGATTGTTCTCCCAGCTGATGAATTGGTGACCTCGAGTAAACAAATTTTCCTAATCTTTCTGTTCAAGCGCCATCTAC”: 0.865 RPM ratio (pull-down/input); “GATGATTGTTCTCCCAGCTGATGAATTTAACTATTCGAGTAAACAAATTTTCCTAATCTTTCTGTTCAAGCGCCATCTAC”: 0.876 RPM ratio (pull-down/input).
Next, “GATGATTGTTCTCCCAGCTGATGAATTCGCAACATCGAGTAAACAAATTTTCCTAATCTTTCTGTTCAAGCGCCATCTAC”: 1.3 RPM ratio (pull-down/input); “GATGATTGTTCTCCCAGCTGATGAATTCATCGCATCGAGTAAACAAATTTTCCTAATCTTTCTGTTCAAGCGCCATCTAC”: 1.15 RPM ratio (pull-down/input); “GATGATTGTTCTCCCAGCTGATGAATTCTAATTCTCGAGTAAACAAATTTTCCTAATCTTTCTGTTCAAGCGCCATCTAC”: 0.884 RPM ratio (pull-down/input).
“GATGATTGTTCTCCCAGCTGATGAATTATGATAGTCGAGTAAACAAATTTTCCTAATCTTTCTGTTCAAGCGCCATCTAC”: the binding signal is 0.942 RPM ratio (pull-down/input).
For “GATGATTGTTCTCCCAGCTGATGAATTTCCGCGTTCGAGTAAACAAATTTTCCTAATCTTTCTGTTCAAGCGCCATCTAC” the value was 0.837 RPM ratio (pull-down/input).
For “GATGATTGTTCTCCCAGCTGATGAATTATCTCACTCGAGTAAACAAATTTTCCTAATCTTTCTGTTCAAGCGCCATCTAC” the value was 1.03 RPM ratio (pull-down/input).
For “GATGATTGTTCTCCCAGCTGATGAATTCAATTCGTCGAGTAAACAAATTTTCCTAATCTTTCTGTTCAAGCGCCATCTAC” the value was 0.887 RPM ratio (pull-down/input); for “GATGATTGTTCTCCCAGCTGATGAATTGAGCAGCTCGAGTAAACAAATTTTCCTAATCTTTCTGTTCAAGCGCCATCTAC”, 0.812 RPM ratio (pull-down/input).
